The values that follow come from the supplement of paper PMC11417369.

± gives the standard deviation of the averaged measurements. This is one part of the list.

The experiment deals with PfAP2-G AP2 domain (GST-tagged). Briefly: gcPBM binding intensity (ln(normalized median fluorescence intensity)); higher = stronger DNA binding. In short, it runs like this: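 The highest Masliner-normalised natural-log median intensity across replicate spots of either probe orientation is reported as binding intensity. GST-tagged P. falciparum DNA-binding domains expressed in E. coli were applied for 1 h to an Agilent 4 × 180k array of primer-extended double-stranded 36-bp intergenic genomic probes plus negative controls, and bound protein was detected with Alexa488 anti-GST antibody and scanned at 488 nm.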
In the case of “ATGTGCACATGTAGAAGTACTTTTTCTTAAAATACT [XGTACX_site8341]”, the “gcPBM binding intensity (ln)” value was 11.3 ± 0.7.
Then “AAATTATTGTAAAATAGTACAGTGAAACATAAAGTT [XGTACX_site589]”, with 11.3 ± 0.8.
As to “CAAATACACGGACACACACACACAAAAAAAAAAAAA [CACACA_site6385]”, the “gcPBM binding intensity (ln)” value stood at 11.4 ± 1.2.
“AAGAGAAATGGGCACACACACACATATTATAGATAT [CACACA_site6828]”: the “gcPBM binding intensity (ln)” value worked out at 10.6 ± 0.44.
Next, “TATAAAAAATTCAATACACACCATATATAAATATAT [CACACA_site6060]”: 9.885 ± 0.035; “TGATTCACTATAGTAGTGCATATTATATATATATAT [GTGCAC_site9975]”: 10.3 ± 0.4; “TATAATAATTCATAATGTACTTTTATCAAAAAAGTA [XGTACX_site6868]”: 11.2 ± 0.79.
Then “TAAATACAAGTAAAAAGTACAGAAAAATTATATATA [XGTACX_site1758]”, with 11.4 ± 0.84; and “TTTATTTGGACATATACACACTTAAATATGTTTATT [CACACA_site6021]”, with 10.5 ± 0.28; and “TTTATTTTGTTTTCTTGTACATAAATAATTACATAT [XGTACX_site4227]”, with 11 ± 0.66.
Then “TTAATTACACAAAAAAGTACTTGATATTGTTTATTA [XGTACX_site3449]”, with 11.1 ± 0.74; and “ATATAATCAACTGCAAAGGTTTAAAAGGAAAAAATA [CACACA_negctrl_site989]”, with 10 ± 0.13; and “AATATTTACCAGAAAATAAAAATATGTATATATATA [CACACA_negctrl_site351]”, with 9.94 ± 0.3.
For the sequence “AAAAAACGCACTCGTACACACATATTTTCTTTCTAA [CACACA_site3089]”, the “gcPBM binding intensity (ln)” value amounted to 11.4 ± 0.87.
Then “ATTTTTATGTCTTTCTATAAATCGAAAATATACATA [CACACA_negctrl_site477]”, with 9.95 ± 0.17.
Next, “TTCCTTTAACCCTGCACACATACATACATTTATATG [CACACA_site3953]”: 10.4 ± 0.23.
Next, “ATATACAACTAAAGAACACACATCATTGTTCATTGG [CACACA_site3681]”: 9.85 ± 0.15.
Turning to “TTTTTATTCAACAAAAATATCAAACATAATTATAAA [CACACA_negctrl_site616]”, the “gcPBM binding intensity (ln)” value was found to be 9.935 ± 0.064.
On to “AATATTTATATTTACACACACATAATACATATATGT [CACACA_site33]”, for which the “gcPBM binding intensity (ln)” value is 10.2 ± 0.13.
Next, “TAAAATAGAAATATATGTACATATATATATGTATAT [XGTACX_site4134]”: 11 ± 0.47.
As to “CGATATTCTAAGGATAGTACATAATAAAATAGAGTA [XGTACX_site4224]”, the “gcPBM binding intensity (ln)” value amounted to 11 ± 0.6.
Then “ATTTATATTTTTTAATGTACATTTATATGTATACAA [XGTACX_site4555]”, with 11 ± 0.66; and “GTTCTAAAAGTTAATGCATGTTATAAGTTTCCCTCT [TGCATGCA_site94]”, with 9.91 ± 0.028.
Next, “TATTTCAAAATATGGGTGCAGTTCTTCATGATATAT [GTGCAC_site9658]”: 10.3 ± 0.26; “AGTAATAAAAGTAGAAGTACAATACTTCAAAGATAT [XGTACX_site8562]”: 11.6 ± 0.93; “ATTAAACATAAATATGCACACATATACATATATTCA [CACACA_site8850]”: 9.97 ± 0.16.
“ATGTATATATTTACGTGTACATATTCATGTGATATC [XGTACX_site5871]”: the “gcPBM binding intensity (ln)” value was found to be 11.5 ± 1.2.
Then “TGCTATTTTTTCCTTTTTTTGTATCACAATCATATA [CACACA_negctrl_site1576]”, with 10.1 ± 0.21.
Next, “TTATACTTTGGGTGGTGTACTATATTATGCTTATAA [XGTACX_site1106]”: 11.4 ± 0.92.
Then “AGATATATAAATATTACACACTATATATCTATTTAT [CACACA_site6466]”, with 9.72 ± 0.18; and “ATTTGCCCATTTAATTAACACACAAATGTTTATATT [CACACA_site8145]”, with 10.3 ± 0.2.
With “TTTATTTATTAATACACACACACACCCAGACAAAAT [CACACA_site4292]”, the “gcPBM binding intensity (ln)” value is 10.7 ± 0.6.
Take “TATCTTTTTACAATAGTGCATATGTTATCATTAATA [GTGCAC_site9489]”: the “gcPBM binding intensity (ln)” value was found to be 10.07 ± 0.078.
Next, “ATTATATACATTTTAGTGCATTACATAATAATATAA [GTGCAC_site9836]”: 10.2 ± 0.24.
Then “GTATGCATTATATACACACATACATTTATATATTCT [CACACA_site115]”, with 10 ± 0.014; and “TTTCTTTTTTGATGCGTGCACATTTGTTTATTTTTC [GTGCAC_site9792]”, with 10.4 ± 0.2.
Take “ACTATTTAATATAGGGTGCAACTTTTTCAAGTAAAT [GTGCAC_site9853]”: the “gcPBM binding intensity (ln)” value stood at 10.4 ± 0.42.
For the sequence “ATTCATTTTATTTTTTCACACACACCGATATATATA [CACACA_site9097]”, the “gcPBM binding intensity (ln)” value was found to be 10.2 ± 0.25.
Then “ACCCCCATATTCTTTTTACACACTTGAATAAAAAAT [CACACA_site8319]”, with 11.1 ± 0.63.
Then “ATTTTTCAATTATGTAGTACATTGATATTTTCATTT [XGTACX_site5369]”, with 11.4 ± 0.89; and “ATTTTTATTCTTATTACACACCTAAATATAAAATAT [CACACA_site2064]”, with 10.2 ± 0.2.
Next, “TTTATATTTATATTGGGTACATAAAAAGCTTGAAAT [XGTACX_site8248]”: 11.4 ± 1.1.
As to “TGTGTTCATATATGCACACGCATATATATTATTGTT [CACACA_site3822]”, the “gcPBM binding intensity (ln)” value stood at 9.94 ± 0.014.
Then TGTGTCCATTGAACAGTGCAATAAAAACTTTTACAT, with 10.6 ± 0.41; and “ATAAATATGGAGCACACACACATAAACATACATATA [CACACA_site421]”, with 10.4 ± 0.33.
As to “AAAAAAAAAAAACACACACACACACCGATACATACA [CACACA_site8849]”, the “gcPBM binding intensity (ln)” value came to 10.13 ± 0.099.
Next, “TTTTTTTTTTTGTGGTGTACCTTTATTTCCTTTTAG [XGTACX_site6934]”: 11.3 ± 1.1; “ATACATATATATATATGTACATATGCACATATATAC [XGTACX_site7209]”: 11.1 ± 0.62.
Next, “AAGAAAAAAGGGGACAAGGCATATCTATATATACAT [TGCATGCA_negctrl_site172]”: 10.7 ± 0.52; “TATGTAACACATACTTGTACATATATAATTTTTTTA [XGTACX_site6251]”: 11 ± 0.59.
Next, “ATAATATATATATATACGCACACTTATGTACGGATT [CACACA_site2120]”: 11.2 ± 0.77; “TTCTATATAATTCAAACATGCACAGGAAATATTATA [TGCATGCA_site290]”: 10.19 ± 0.057.
As to “AACAATGTTTTCTTGTGTACACATCATTAAAGAAAA [XGTACX_site4726]”, the “gcPBM binding intensity (ln)” value amounted to 11.6 ± 0.88.
Next, “TTATTTTTACAATTTTAATAATAATACTAAAACAAA [XGTACX_negctrl_site538]”: 9.89 ± 0.39; “ATATATATATCACGCACACACGAATTTTAAATATAT [CACACA_site5691]”: 10.2 ± 0.29.
Then “TCTTTTGCCCAAAAAGGTACACACCACAATTTAAAT [XGTACX_site1482]”, with 11.4 ± 0.88.
